Laboratory results taken from PubChem BioAssay AID360 (National Center for Advancing Translational Sciences (NCATS), 2006).
Among all 48,000 compounds or so, about 550 (1.1%) were called active. Inconclusive results (about 4%) are left out. Cut-off read from the data, not from the text of the source: active = potency below about 15 µM; inconclusive = mostly about 16 µM to 33 µM; inactive = weaker than that. Some of the results follow.

biological target: Lysosomal acid glucosylceramidase (Homo sapiens) (UniProt P04062); experiment: Glucocerebrosidase; conditions: purified enzyme, resorufin glucoside fluorescence (screen aimed at inhibitors), 20 min;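 note: the screen sought inhibitors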
Summary of the method: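 Wild-type enzyme at 0.2 nM final in 50mM citric acid/KH2PO4, 10mM sodium taurocholate, 0.01% tween-20, pH 5.9, with resorufin beta-D-glucopyranoside at 30 uM final. Compounds titrated, 20 min at RT, red fluorescence read; AC50 from titration.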
Potency is the fitted concentration of half-maximal effect.

Chain of UniProt P04062 (P04062 whole entry, looked up): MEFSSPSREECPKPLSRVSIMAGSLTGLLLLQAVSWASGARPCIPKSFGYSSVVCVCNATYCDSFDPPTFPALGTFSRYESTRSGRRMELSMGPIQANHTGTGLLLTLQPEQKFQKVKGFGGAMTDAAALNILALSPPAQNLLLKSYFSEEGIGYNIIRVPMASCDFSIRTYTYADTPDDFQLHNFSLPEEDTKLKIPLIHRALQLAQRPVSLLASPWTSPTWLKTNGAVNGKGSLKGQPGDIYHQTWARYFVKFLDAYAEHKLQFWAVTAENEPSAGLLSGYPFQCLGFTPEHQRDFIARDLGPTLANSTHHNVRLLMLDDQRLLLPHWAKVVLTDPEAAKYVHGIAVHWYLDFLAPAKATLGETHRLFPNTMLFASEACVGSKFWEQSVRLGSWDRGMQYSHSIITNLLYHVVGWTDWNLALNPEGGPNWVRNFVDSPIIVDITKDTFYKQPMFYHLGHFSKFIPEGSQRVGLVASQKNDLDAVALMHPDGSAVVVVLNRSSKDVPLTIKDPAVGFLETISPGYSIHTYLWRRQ

SMILES | Potency
CCCOC(=O)c1ccc2c(c1)C(=O)N(c1ccccc1)C2=O | inactive: > 76.9 µM
O=C(Nc1cccc(F)c1)c1cccc(S(=O)(=O)N2CCOCC2)c1 | inactive: > 76.9 µM
CCOc1ccccc1N1CCN(C(=O)c2c(C)noc2C)CC1 | inactive: > 76.9 µM
COc1cccc(Nc2ncc(C(=O)O)c3ccccc23)c1 | inactive: > 76.9 µM
O=C(O)C1C2C=CC(C2)C1C(=O)N1CCc2ccccc21 (stereo unspecified) | inactive: > 76.9 µM
Cc1cc(C(=O)CN2C(=O)NC3(CCCCC3)C2=O)c(C)n1Cc1ccc2c(c1)OCO2 | inactive
COCCCNC(=O)CCc1nc2cccnc2n1Cc1ccc(OC)cc1 | inactive: > 76.9 µM
O=C(Cn1nnc2ccccc2c1=O)NCc1ccco1 | inactive: > 76.9 µM
O=C(COc1ccccc1O)c1cccs1 | inactive: > 76.9 µM
O=C(O)CSc1nnc(CNc2ccccc2Cl)n1-c1ccccc1 | inactive: > 76.9 µM
CCO/C=C1/C(=O)N(CC)c2ccccc21 | inactive: > 76.9 µM
CCOc1ccc(C2C(C#N)=C(N)Oc3cc(C)n(Cc4ccco4)c(=O)c32)cc1OC (stereo unspecified) | inactive: > 76.9 µM
CS(=O)(=O)N(CC(=O)NC1CCCCCC1)Cc1ccccc1 | inactive: > 76.9 µM
CN1CCN(c2nc3c(c(=O)[nH]c(=O)n3C)n2CCOc2ccccc2)CC1 | inactive: > 76.9 µM
CCOCCCNC(=O)C1CCN(C(=O)N(C)C)CC1 | inactive: > 76.9 µM
Cc1cccc(-n2c(N)c(C(=O)NCCN3CCOCC3)c3nc4ccccc4nc32)c1 | inactive
O=C(c1ccc(Br)o1)N1CCN(c2ccccc2F)CC1 | inactive: > 76.9 µM
Cc1ccc(-c2cc(C(=O)Nc3c(C#N)cnn3C)no2)cc1 | inactive: > 76.9 µM
CC(C)c1c(O)nc(SCCC(=O)O)[nH]c1=O | inactive: > 76.9 µM
Cc1ccccc1-n1nnc2c(=O)oc3ccccc3c21 | inactive: > 76.9 µM
O=C(Cn1cccc1C(=O)c1ccccc1)NCc1cccnc1 | inactive: > 76.9 µM
COc1ccc(C2OC(=O)CC2C(=O)NC2CCCCCC2)cc1OC (stereo unspecified) | inactive: > 76.9 µM
Cc1ccccc1N(C)S(=O)(=O)c1ccc2[nH]cc(C(=O)NCC3CCCO3)c(=O)c2c1 (stereo unspecified) | inactive: > 76.9 µM

SMILES | Potency
Cc1ccc(C2c3c(oc4ccccc4c3=O)C(=O)N2c2nnc(C)s2)o1 (stereo unspecified) | inactive: > 76.9 µM
CCCOc1ccc(C2C(=O)N(C3CCCCC3)CC(=O)N2CCC)cc1OC (stereo unspecified) | inactive: > 76.9 µM
OCCOCCn1c2ccccc2c2ccccc21 | inactive: > 76.9 µM
Cc1cc(C)nc(-n2nc(C)cc2NC(=O)c2ccc3c(c2)OCO3)n1 | inactive: > 76.9 µM
c1ccc(-c2noc(C34CC5CC(CC(C5)C3)C4)n2)nc1 | inactive: > 76.9 µM
CCc1nnc(NC(=O)c2cc3c(s2)CCCCC3)s1 | inactive: > 76.9 µM
Cc1nnc(SCC(=O)Nc2ccc(N3CCOCC3)cc2)o1 | inactive: > 76.9 µM
Cc1c(=O)n(OCc2ccccn2)c2ccccc2[n+]1[O-] | inactive: > 76.9 µM
CCOC(=O)Nc1ccc2c(c1)nc(CN1CCN(C(C)=O)CC1)n2C | inactive: > 76.9 µM
CC(=O)C1=C(O)C(=O)N(CO)C1c1ccccc1F (stereo unspecified) | inactive: > 76.9 µM
O=C1CC(c2cccc(Cl)c2)Cc2nc(N3CCN(c4ccccc4)CC3)ncc21 (stereo unspecified) | inactive: > 76.9 µM
O=C(CSc1nc2ccccc2[nH]1)NC(=O)NCc1ccco1 | inactive: > 76.9 µM
CCN1CCCC1CNC(=O)c1c(O)c2c([nH]c1=O)CCCC2 (stereo unspecified) | inactive: > 76.9 µM
CCC(Sc1ccc2nnc(-c3ccc(OC)c(OC)c3)n2n1)C(=O)O (stereo unspecified) | inactive: > 76.9 µM
Cn1c(=O)[nH]c(=O)c2c1nc(N1CCCCCC1)n2CCCSc1nc2ccccc2o1 | inactive: > 76.9 µM
Cc1ccc(N2C(=O)C3C(C2=O)C(C(=O)c2ccc(Cl)cc2)N2CCCC32)cc1 (stereo unspecified) | inactive: > 76.9 µM
CCCCNC(=O)c1ccccc1C(=O)NCCCC | inactive: > 76.9 µM
O=C(NC1CCCCC1)N(CCN1CCOCC1)Cc1cc2cc3c(cc2[nH]c1=O)OCCO3 | inactive: > 76.9 µM
O=C(Nc1nc2c(ccc3ccccc32)s1)c1ccco1 | inactive: > 76.9 µM
CCOC(=O)c1c(C2COc3ccccc3O2)csc1N (stereo unspecified) | inactive: > 76.9 µM
CCOCCn1c(SCC)nc2c1c(=O)[nH]c(=O)n2C | inactive: > 76.9 µM
CCOC(=O)c1[nH]c2ccccc2c1NC(=O)c1cc(OC)c(OC)c(OC)c1 | inactive
O=C(Cn1cnc2c(nnn2Cc2ccc(Cl)cc2)c1=O)OCc1ccccc1 | inactive: > 76.9 µM

SMILES | Potency
O=C(Nc1nncs1)C1COc2ccccc2O1 (stereo unspecified) | inactive: > 76.9 µM
COc1ccc(C(=O)Nc2nnc(Cc3cccs3)s2)cc1OC | inactive: > 76.9 µM
COc1cccc(C2N(c3ccc(Cl)c(Cl)c3)C(=O)C3CCCN32)c1OC (stereo unspecified) | inactive: > 76.9 µM
Cc1ccc(-n2c(=O)cc(N3CCC(C)CC3)[nH]c2=O)cc1 | inactive: > 76.9 µM
Cc1cc(=O)[nH]c(SCC(=O)Nc2ccc(Br)cn2)n1 | inactive: > 76.9 µM
CCN(CC)S(=O)(=O)c1ccc(C(=O)Nc2ncn(Cc3ccccc3)n2)cc1 | inactive: > 76.9 µM
CCSC1=C(C#N)C(c2ccc(OC)c(OC)c2)CC(=O)N1 (stereo unspecified) | inactive: > 76.9 µM
N#CCCN(C(=O)CSc1ccc2c(c1)OCCO2)c1ccccc1 | inactive: > 76.9 µM
Cc1cccc(NC(=O)CN2C(=O)COc3ccc(Cl)cc32)c1 | inactive: > 76.9 µM
CC(C)Cn1c(Br)nc2c1c(=O)n(CCC#N)c(=O)n2C | inactive: > 76.9 µM
Cc1ccc(C)c(S(=O)(=O)N2CC(=O)Nc3ccccc32)c1 | inactive: > 76.9 µM
Cc1cc(C)n2nc(C(=O)OCC(=O)Nc3ccc4c(c3)OCO4)nc2n1 | inactive: > 76.9 µM
O=C(c1noc2c1CCCCC2)N1CCOCC1 | inactive: > 76.9 µM
CN(CCCNC(=O)COc1cc(=O)n(C)c2ccccc12)Cc1ccccc1 | inactive: > 76.9 µM
OC1(c2ccc(F)cc2)CCN(Cc2nnnn2Cc2cccs2)CC1 | inactive: > 76.9 µM
O=C(O)c1cccc(-n2cccc2/C=N/O)c1 | inactive: > 76.9 µM
CCc1nn(CC(=O)NCCN2CCN(C)CC2)c(=O)c2cc3occc3n12 | inactive: > 76.9 µM
CCN1CCN(C(=O)CN(c2cc(OC)ccc2OC)S(C)(=O)=O)CC1 | inactive: > 76.9 µM
O=C1CCCc2nc(N3CCN(C(c4ccccc4)c4ccccc4)CC3)ncc21 | inactive: > 76.9 µM
O=S(=O)(c1cccc(S(=O)(=O)N2CCC(N3CCCCC3)CC2)c1)N1CCOCC1 | inactive: > 76.9 µM
Cc1ccc(C)n1-c1ccc2c(c1)COC2=O | inactive: > 76.9 µM
O=C(OCC(=O)N1CCN(C(=O)c2ccco2)CC1)c1sc2ccccc2c1Cl | inactive: > 76.9 µM
Cc1cccc(CS(=O)(=O)Cc2ccc(C(=O)NCCN3CCCCC3C)o2)c1 (stereo unspecified) | inactive: > 76.9 µM

SMILES | Potency
Clc1cccc(Cl)c1-c1nnc2ccc(N3CCOCC3)nn12 | inactive: > 76.9 µM
CC1CC(C)CN(C(=O)Cn2c(=O)n(CCCCC(=O)NC3CCCC3)c(=O)c3ccccc32)C1 (stereo unspecified) | inactive: > 76.9 µM
Cn1c(=O)c2c(n(Cc3ccccc3)c1=O)NC(=O)C2CC(=O)N1CCc2ccccc2C1 (stereo unspecified) | inactive: > 76.9 µM
Cc1cc2nc(SCC(=O)Nc3nonc3C)c3c(c2cc1C)CCCC3 | inactive: > 76.9 µM
COc1ccc(NC(=O)c2ccco2)cc1NC(=O)c1cccc(OC(C)C)c1 | active: 9.83 µM
CCOC(=O)CC(=O)Nc1nnc(C(C)C)s1 | inactive: > 76.9 µM
CS(=O)(=O)N(Cc1nnc(-c2cccs2)o1)c1ccc(Cl)cc1F | inactive: > 76.9 µM
CCOc1ccc(S(=O)(=O)n2nnc3ccccc32)cc1C | inactive: > 76.9 µM
COc1cccc(NC(=O)c2ncn[nH]2)c1 | inactive: > 76.9 µM
COc1ccc(OC)c(N(CC(=O)Nc2cccnc2)S(=O)(=O)c2ccc(OC)c(OC)c2)c1 | inactive: > 76.9 µM
CCOC(=O)N1CCC(NC(=O)C2CCCN(c3nc4ccccc4o3)C2)CC1 (stereo unspecified) | inactive: > 76.9 µM
COc1cc2nc(=S)n3[nH]c(CCn4nc(C)cc4C)nc3c2cc1OC | inactive: > 76.9 µM
Cc1ccccc1Nc1nnc(SCC(=O)NCc2ccco2)s1 | inactive
COc1cccc(CC(=O)Nn2c(C)nc3ccccc3c2=O)c1 | inactive: > 76.9 µM
Cc1noc(C)c1COC(=O)c1cc(F)c(F)cc1Cl | inactive: > 76.9 µM
COCCn1c(=S)[nH]c2cc(C(=O)NCCCN3CCOCC3)ccc2c1=O | inactive: > 76.9 µM
O=C(Cn1cnc2c(cnn2-c2ccc(Cl)cc2)c1=O)NCC1CCCO1 (stereo unspecified) | inactive: > 76.9 µM
CCN1CCN(C(=O)CN(c2ccc(C)cc2)S(C)(=O)=O)CC1 | inactive: > 76.9 µM
CCCCC(=O)NCCNc1nc2c(c(=O)n(C)c(=O)n2C)n1Cc1ccc(F)cc1 | inactive: > 76.9 µM
N#Cc1cc2c(=O)n3ccccc3nc2n(CCN2CCOCC2)c1=O | inactive: > 76.9 µM
CC(C)c1nc2oc3c(=O)[nH]cnc3c2c2c1CCC2 | inactive: > 76.9 µM
O=C(NCc1cccnc1)c1cc(-c2ccccc2)on1 | inactive: > 76.9 µM
